T1: RBFOX1 RRM RbFoxmut (Fox-RRM*) (Homo sapiens, UniProt Q9NWB1 109-208, R118D;E147R;N151S;E152T)
T1 sequence: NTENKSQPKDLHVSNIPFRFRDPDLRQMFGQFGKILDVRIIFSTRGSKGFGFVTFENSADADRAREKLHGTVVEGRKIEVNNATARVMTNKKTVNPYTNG

B1: CCGCAAA (DNA:RNA)
RNA: GGGAGACCGGAAUUCAGAUUGUCCCCGCAAAUUAAAUCCCGUCGUAGCCACCA
DNA 1: CAATCTGAATTCCGGTCTCCC
DNA 2: TGGTGGCTACGACGGGATT
B2: UCUUAAG (DNA:RNA)
RNA: B1 RNA with C25U, G27U, C28U, A31G
DNA 1: CAATCTGAATTCCGGTCTCCC
DNA 2: TGGTGGCTACGACGGGATT
B3: GCCAUUU (DNA:RNA)
RNA: B1 RNA with C25G, G27C, C28A, A29U, A30U, A31U
DNA 1: CAATCTGAATTCCGGTCTCCC
DNA 2: TGGTGGCTACGACGGGATT
B4: GCACAUU (DNA:RNA)
RNA: B1 RNA with C25G, G27A, A30U, A31U
DNA 1: CAATCTGAATTCCGGTCTCCC
DNA 2: TGGTGGCTACGACGGGATT
B5: UGUAGGG (DNA:RNA)
RNA: GGGAGACCGGAAUUCAGAUUGUCCUGUAGGGUUAAAUCCCGUCGUAGCCACCA
DNA 1: CAATCTGAATTCCGGTCTCCC
DNA 2: TGGTGGCTACGACGGGATT
B6: UGAUUAU (DNA:RNA)
RNA: B5 RNA with U27A, A28U, G29U, G30A, G31U
DNA 1: CAATCTGAATTCCGGTCTCCC
DNA 2: TGGTGGCTACGACGGGATT
B7: ACGUUAA (DNA:RNA)
RNA: B1 RNA with C25A, C28U, A29U
DNA 1: CAATCTGAATTCCGGTCTCCC
DNA 2: TGGTGGCTACGACGGGATT
B8: CGAGUGA (DNA:RNA)
RNA: B1 RNA with C26G, G27A, C28G, A29U, A30G
DNA 1: CAATCTGAATTCCGGTCTCCC
DNA 2: TGGTGGCTACGACGGGATT
B9: CCUGGCG (DNA:RNA)
RNA: B5 RNA with U25C, G26C, A28G, G30C
DNA 1: CAATCTGAATTCCGGTCTCCC
DNA 2: TGGTGGCTACGACGGGATT
B10: UGAACGA (DNA:RNA)
RNA: B5 RNA with U27A, G29C, G31A
DNA 1: CAATCTGAATTCCGGTCTCCC
DNA 2: TGGTGGCTACGACGGGATT
B11: CGCCACU (DNA:RNA)
RNA: B1 RNA with C26G, G27C, A30C, A31U
DNA 1: CAATCTGAATTCCGGTCTCCC
DNA 2: TGGTGGCTACGACGGGATT
B12: AUUGCCA (DNA:RNA)
RNA: B1 RNA with C25A, C26U, G27U, C28G, A29C, A30C
DNA 1: CAATCTGAATTCCGGTCTCCC
DNA 2: TGGTGGCTACGACGGGATT
B13: GAGGUAC (DNA:RNA)
RNA: B1 RNA with C25G, C26A, C28G, A29U, A31C
DNA 1: CAATCTGAATTCCGGTCTCCC
DNA 2: TGGTGGCTACGACGGGATT
B14: CGAGGGU (DNA:RNA)
RNA: B5 RNA with U25C, U27A, A28G, G31U
DNA 1: CAATCTGAATTCCGGTCTCCC
DNA 2: TGGTGGCTACGACGGGATT
B15: GCCCAGG (DNA:RNA)
RNA: B1 RNA with C25G, G27C, A30G, A31G
DNA 1: CAATCTGAATTCCGGTCTCCC
DNA 2: TGGTGGCTACGACGGGATT
B16: ACCCCCA (DNA:RNA)
RNA: B1 RNA with C25A, G27C, A29C, A30C
DNA 1: CAATCTGAATTCCGGTCTCCC
DNA 2: TGGTGGCTACGACGGGATT
B17: CUAUAUC (DNA:RNA)
RNA: B1 RNA with C26U, G27A, C28U, A30U, A31C
DNA 1: CAATCTGAATTCCGGTCTCCC
DNA 2: TGGTGGCTACGACGGGATT
B18: CGUUCAC (DNA:RNA)
RNA: B1 RNA with C26G, G27U, C28U, A29C, A31C
DNA 1: CAATCTGAATTCCGGTCTCCC
DNA 2: TGGTGGCTACGACGGGATT
B19: GUUCUAG (DNA:RNA)
RNA: B1 RNA with C25G, C26U, G27U, A29U, A31G
DNA 1: CAATCTGAATTCCGGTCTCCC
DNA 2: TGGTGGCTACGACGGGATT
B20: GCGGGGA (DNA:RNA)
RNA: B1 RNA with C25G, C28G, A29G, A30G
DNA 1: CAATCTGAATTCCGGTCTCCC
DNA 2: TGGTGGCTACGACGGGATT
B21: ACCCCUU (DNA:RNA)
RNA: B1 RNA with C25A, G27C, A29C, A30U, A31U
DNA 1: CAATCTGAATTCCGGTCTCCC
DNA 2: TGGTGGCTACGACGGGATT
B22: CGUCCUU (DNA:RNA)
RNA: B1 RNA with C26G, G27U, A29C, A30U, A31U
DNA 1: CAATCTGAATTCCGGTCTCCC
DNA 2: TGGTGGCTACGACGGGATT
B23: AAGCGAA (DNA:RNA)
RNA: B1 RNA with C25A, C26A, A29G
DNA 1: CAATCTGAATTCCGGTCTCCC
DNA 2: TGGTGGCTACGACGGGATT
B24: CGUUCCA (DNA:RNA)
RNA: B1 RNA with C26G, G27U, C28U, A29C, A30C
DNA 1: CAATCTGAATTCCGGTCTCCC
DNA 2: TGGTGGCTACGACGGGATT
B25: GACACUA (DNA:RNA)
RNA: B1 RNA with C25G, C26A, G27C, C28A, A29C, A30U
DNA 1: CAATCTGAATTCCGGTCTCCC
DNA 2: TGGTGGCTACGACGGGATT
B26: UGCUACU (DNA:RNA)
RNA: B5 RNA with U27C, A28U, G29A, G30C, G31U
DNA 1: CAATCTGAATTCCGGTCTCCC
DNA 2: TGGTGGCTACGACGGGATT
B27: AUACGAU (DNA:RNA)
RNA: B1 RNA with C25A, C26U, G27A, A29G, A31U
DNA 1: CAATCTGAATTCCGGTCTCCC
DNA 2: TGGTGGCTACGACGGGATT
B28: CCCUCCU (DNA:RNA)
RNA: B1 RNA with G27C, C28U, A29C, A30C, A31U
DNA 1: CAATCTGAATTCCGGTCTCCC
DNA 2: TGGTGGCTACGACGGGATT
B29: ACGAACG (DNA:RNA)
RNA: B1 RNA with C25A, C28A, A30C, A31G
DNA 1: CAATCTGAATTCCGGTCTCCC
DNA 2: TGGTGGCTACGACGGGATT
B30: UACUCAU (DNA:RNA)
RNA: B1 RNA with C25U, C26A, G27C, C28U, A29C, A31U
DNA 1: CAATCTGAATTCCGGTCTCCC
DNA 2: TGGTGGCTACGACGGGATT
B31: CCUUAGG (DNA:RNA)
RNA: B1 RNA with G27U, C28U, A30G, A31G
DNA 1: CAATCTGAATTCCGGTCTCCC
DNA 2: TGGTGGCTACGACGGGATT

Positions count from the first letter of the chain named. Some of the results follow.

The values below come from PMC9911399, “Two distinct binding modes provide the RNA-binding protein RbFox with extraordinary sequence specificity”.

In this assay the target is T1, RBFOX1 RRM RbFoxmut (Fox-RRM*). The experiment in a line: EMSA; HiTS-Eq, 1 nM pool, 10 min; buffer printed only for the single-RNA assays: 10 mM Tris pH 7.5, 150 mM NaCl, 3.4 mM EDTA, 0.001% NP-40, 30 C. Conditions: tags: His6 N-terminal (pET28a); label: 5' 32P. In outline:
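Purified RbFox RRM, wild type or mutant, was incubated for 10 min in 50 µL with 1 nM of a 5′-radiolabelled RNA pool carrying 7 randomized nucleotides, whose flanks were annealed to DNA oligonucleotides, over a series of increasing protein concentrations. Unbound RNA was resolved on 8% native PAGE, cut out, reverse-transcribed, barcoded by PCR and sequenced on an Illumina HiSeq 2500. Relative association constants were derived from changes in read counts for each RNA species versus the control reaction and normalised to the cognate motif.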
(In general: Mobility shift assays separate free from complexed probe on a gel.)
For the molecule B1, the binding signal was 0.0843 KA relative to UGCAUGU. Consider B2, for which the binding signal is 0.125 KA relative to UGCAUGU. In the case of B3, the binding signal is 0.0825 KA relative to UGCAUGU. For B4, the binding signal is 0.107 KA relative to UGCAUGU.

Consider B5, for which the binding signal was 0.0751 KA relative to UGCAUGU.

Consider B6, for which the binding signal is 0.135 KA relative to UGCAUGU. Then B7, with 0.123 KA relative to UGCAUGU; and B8, with 0.13 KA relative to UGCAUGU.

For the molecule B9, the binding signal was 0.12 KA relative to UGCAUGU.

For the molecule B10, the binding signal is 0.165 KA relative to UGCAUGU. Then B11, with 0.0957 KA relative to UGCAUGU. With B12, the binding signal is 0.133 KA relative to UGCAUGU. Then B13, with 0.0925 KA relative to UGCAUGU; and B14, with 0.0907 KA relative to UGCAUGU. Take B15: the binding signal is 0.0824 KA relative to UGCAUGU. Turning to B16, the binding signal was 0.0825 KA relative to UGCAUGU. B17: the binding signal is 0.0777 KA relative to UGCAUGU. Then B18, with 0.0955 KA relative to UGCAUGU; and B19, with 0.111 KA relative to UGCAUGU; and B20, with 0.0917 KA relative to UGCAUGU. As for B21, the figure is 0.0758 KA relative to UGCAUGU. In the case of B22, the binding signal was 0.0862 KA relative to UGCAUGU. Consider B23, for which the binding signal was 0.104 KA relative to UGCAUGU.

B24: the binding signal was 0.0597 KA relative to UGCAUGU. Take B25: the binding signal was 0.0981 KA relative to UGCAUGU. Then B26, with 0.135 KA relative to UGCAUGU; and B27, with 0.07 KA relative to UGCAUGU; and B28, with 0.0815 KA relative to UGCAUGU. Consider B29, for which the binding signal was 0.26 KA relative to UGCAUGU. Then B30, with 0.0982 KA relative to UGCAUGU; and B31, with 0.0675 KA relative to UGCAUGU.
